Measured values reported in PubChem BioAssay AID504637 (National Center for Advancing Translational Sciences (NCATS), 2011).
Among all 1,100 compounds or so, about 430 (39%) were called active. So high a share suggests a set chosen from earlier hits. Inconclusive results, whose numbers are uncertain, are shown with a selection of clear calls. Calls come from the whole dose curve; as a rule, active = well fitted inhibition curve with a large enough effect; inconclusive = small, poorly fitted or top-dose-only effect, or effect the other way; inactive = flat fitted curve, though single readings scatter. Potencies beside an inconclusive call are fits to weak or partial responses and may not hold up.

Target: ATP-dependent 6-phosphofructokinase (Trypanosoma brucei brucei) (UniProt O15648)
UniProt O15648, sequence (O15648 whole entry, looked up): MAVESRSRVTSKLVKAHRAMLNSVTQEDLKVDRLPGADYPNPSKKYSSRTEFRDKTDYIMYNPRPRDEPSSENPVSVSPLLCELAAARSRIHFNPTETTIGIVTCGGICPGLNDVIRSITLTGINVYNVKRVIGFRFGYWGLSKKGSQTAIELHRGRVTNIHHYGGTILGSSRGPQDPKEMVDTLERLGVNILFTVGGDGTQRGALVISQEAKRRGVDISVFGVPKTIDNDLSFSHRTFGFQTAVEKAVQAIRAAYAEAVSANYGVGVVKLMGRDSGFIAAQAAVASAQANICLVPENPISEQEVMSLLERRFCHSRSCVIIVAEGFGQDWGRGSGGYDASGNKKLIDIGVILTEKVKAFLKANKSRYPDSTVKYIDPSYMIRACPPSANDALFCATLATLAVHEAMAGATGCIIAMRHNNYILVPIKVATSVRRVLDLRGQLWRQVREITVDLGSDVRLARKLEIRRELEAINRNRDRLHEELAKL
Experiment: Inhibitors of T. brucei phosphofructokinase: Hit Validation; note: nearly all actives have a fitted effect of over 60% in size
Settings: purified T. brucei PFK, ADP-Glo luminescence, 45 min; series mostly up to 57.5 µM
Potency is the fitted concentration of half-maximal effect; tags give direction and shape of the fitted curve.

SMILES | Potency
ON=C1c2ccccc2-c2ccccc21 | inactive
Cc1nc(Cc2nnc(SCC(=O)N3CCN(c4ccc(O)cc4)CC3)o2)cs1 | inconclusive: 21.3 µM [inhibitor, partial curve, poor fit]
O=C(Nc1ccc(Cc2ccncc2)cc1)c1ccc(Cl)c([N+](=O)[O-])c1 | inconclusive: 30.1 µM [inhibitor, single point]
COc1cc2cc3c(N)c(C(=O)Nc4sc(C)c(C)c4C#N)sc3nc2cc1OC | inactive
c1ccc(OCCN2C3=NCCN3c3ccccc32)cc1 | inconclusive: 33.8 µM [inhibitor, single point]
CCSS(=O)(=O)c1cccc2cccnc12 | active: 19 µM
CCOc1cc(/C=C\[N+](=O)[O-])ccc1OCC(=O)N1CCOCC1 | inconclusive: 1.07 µM [activator, full curve]
O=[N+]([O-])c1c(Nc2ccc(O)cc2)cc(Cl)c2nonc12 | inconclusive: 26.9 µM [inhibitor, partial curve]
COc1ccccc1CC(=O)Nc1ccc2c(c1)C(=O)NC2=O | inconclusive: 26.9 µM [inhibitor, single point]
O=C1Nc2ccccc2N(O)N1c1ccc(Cl)c(Cl)c1 | inactive
Cc1nc(SCc2ccc(O)c([N+](=O)[O-])c2)c([N+](=O)[O-])[nH]1 | inactive
C=CCn1c(SCC(=O)N2CCOCC2)nc2scc(-c3ccco3)c2c1=O | inactive
O=C(CCCn1c(SCC(=O)c2ccc(O)c(O)c2)nc2ccccc2c1=O)NCC1CCCO1 (stereo not drawn) | inconclusive: 3.01 µM [inhibitor, full curve]
Cc1ccc(NC(=O)C(=O)NNC(=O)c2cccs2)cc1 | inconclusive: 3.01 µM [activator, full curve]
Cc1cccc(N2CCN(C(=O)Cn3sc4nc(C)cc(C)c4c3=O)CC2C)c1 (stereo not drawn) | inactive
COc1cc(/C=C/c2sc3ccccc3[n+]2CCCS(=O)(=O)[O-])ccc1O | inconclusive: 30.1 µM [inhibitor, single point]
Cc1ccc(NCc2ccc(O)c3ncccc23)cc1 | inactive
Cc1cc(NC(=O)Nc2ccc(Cl)c(Cl)c2)n(-c2ccccc2)n1 | inactive
COc1ccc(NC(=O)CN(C)C(=O)c2cc3c(s2)CCC3)cc1 | inconclusive: 0.601 µM [inhibitor, full curve]
O=C(O)c1cc(N2N=C(C(F)(F)F)/C(=C/C=C/c3ccco3)C2=O)ccc1Cl | active: 5.36 µM
O=C(Nc1ccc(Cl)cc1)Nc1cccnc1 | inconclusive: 30.1 µM [inhibitor, partial curve]
OCCNC(=S)Nc1ccc(Cl)c(Cl)c1 | inconclusive: 30.1 µM [inhibitor, partial curve]
O=C(Nc1cc(S(=O)(=O)N2CCOCC2)ccc1N1CCCC1)c1ccc(Cl)cc1 | inconclusive: 37.9 µM [inhibitor, single point]
Cc1cc(N(C)C)ccc1[N+](=O)[O-] | active: 30.1 µM
COc1ccc(Nc2nc(C)cc(=O)[nH]2)cc1 | active: 23.9 µM

SMILES | Potency
Cc1nc(SCc2ccc(Cl)c(Cl)c2)n[nH]1 | inconclusive: 30.1 µM [inhibitor, partial curve]
Clc1ccc(CNc2cnccn2)cc1Cl | active: 9.53 µM
CC(C)N(CCc1ccncc1)C(=O)Nc1ccc(Cl)c(Cl)c1 | inactive
O=C(O)c1ccccc1-c1ccc(/C=c2\sc3nc4cc(Br)cnc4n3c2=O)o1 | active: 12 µM
CCN(CC)c1ccc2nc3ccccc3[n+](CC)c2c1 | inconclusive: 26.9 µM [inhibitor, partial curve]
COc1ccc(S(=O)(=O)NNC(=O)c2cc3cc4ccccc4nc3s2)cc1 | inconclusive: 2.39 µM [activator, full curve]
O=C(CC1SC(=O)N(c2ccccc2)C1=O)Nc1ccc(Br)cc1 (stereo not drawn) | inconclusive: 30.1 µM [inhibitor, single point]
Cc1ccccc1NC(=O)CSc1ccsc1[N+](=O)[O-] | active: 16.9 µM
Fc1cc2ncn(Cc3ccccc3)c2cc1F | inconclusive: 33.8 µM [inhibitor, single point]
O=[N+]([O-])c1ccc(Sc2cccc[n+]2[O-])c2nonc12 | active: 9.53 µM
C/C(C/C(C)=C1/SC(=S)NC1=O)=C1\SC(=S)NC1=O | inconclusive: 10.7 µM [activator, partial curve]
NCCOc1ccccc1Cc1ccccc1 | inconclusive: 33.8 µM [inhibitor, single point]
Cc1c(NC(=O)c2ccc(Cl)c([N+](=O)[O-])c2)cccc1-n1cnnn1 | inconclusive: 37.9 µM [inhibitor, partial curve, poor fit]
C/C(=N\NC(=O)Cc1ccc(Cl)c(Cl)c1)c1cccnc1 | inconclusive: 26.9 µM [inhibitor, partial curve]
O=C(CSc1nnc(CNc2ccc(F)cc2)o1)N1CCN(C(=O)c2ccco2)CC1 | active: 23.9 µM
O=C(Cc1cccc(C(F)(F)F)c1)Nc1ccc(S(=O)(=O)N2CCCC2)cc1 | inconclusive: 30.1 µM [inhibitor, partial curve]
NS(=O)(=O)c1ccc(CNC(=S)Nc2ccc(Cl)c(Cl)c2)cc1 | inconclusive: 37.9 µM [inhibitor, single point]
C[C@](N)(Cc1ccc(O)c(O)c1)C(=O)O | inconclusive: 37.9 µM [inhibitor, partial curve, poor fit]
Clc1ccc(C[n+]2cc(-c3ccccc3)n3c2CCC3)cc1Cl | active: 10.7 µM
NCCNc1ccc([N+](=O)[O-])cc1 | inconclusive: 19 µM [inhibitor, partial curve, poor fit]
Cc1nc2ccccc2n1CC(=O)c1ccc(O)c(O)c1 | inconclusive: 2.69 µM [inhibitor, partial curve, poor fit]
COc1ccc(N2CCN(Cc3nc(-c4ccccc4)no3)CC2)cc1 | inactive
Cc1ccc(-c2cc(C(=O)Nc3nccs3)c3ccccc3n2)o1 | inconclusive: 26.9 µM [inhibitor, single point]
O=C(O)C1CCCCC1C(=O)Nc1cccc(Br)c1 (stereo not drawn) | active: 26.9 µM
Oc1ccc(/C=N/N=C/c2ccc(O)c(O)c2)cc1O | inconclusive: 0.675 µM [inhibitor, full curve]

SMILES | Potency
CN(C(=O)Nc1ccc(Cl)c(Cl)c1)c1ccccc1C(=O)O | inconclusive: 37.9 µM [inhibitor, partial curve, poor fit]
COc1ccc(Cl)cc1C(=O)NNC(=O)COC(=O)CCN=C1NS(=O)(=O)c2ccccc21 | inconclusive: 30.1 µM [activator, single point]
Cc1c(C)c2ccc(OCC(=O)N3CCN(c4cccc(Cl)c4)CC3)cc2oc1=O | active: 8.49 µM
O=C(COC(=O)Cc1c(Cl)cccc1Cl)Nc1ccc2[nH]c(=O)[nH]c2c1 | inconclusive: 21.3 µM [inhibitor, single point]
Cc1ccc(/C=C2/NC(=O)N(Cc3ccc(Br)cc3)C2=O)o1 | inconclusive: 30.1 µM [inhibitor, partial curve, poor fit]
Cc1ccc2c(c1)sc(C)[n+]2CCCS(=O)(=O)[O-] | inactive
COc1ccc(/C=C/C(=O)Nc2ccccc2C(=O)O)cc1 | inconclusive: 16.9 µM [activator, partial curve]
NC(=O)c1cccn1Cc1cccc(Cl)c1 | inconclusive: 23.9 µM [inhibitor, single point]
O=C(Nc1ccc(F)c(Cl)c1)Nn1cnnc1 | inconclusive: 30.1 µM [inhibitor, single point]
O=C(NNC(=O)c1ccccc1Br)c1ccc2nc[nH]c2c1 | inconclusive: 37.9 µM [inhibitor, single point]
O=C(O)CCc1nn2cc(-c3ccccc3)nc2[nH]c1=O | inactive
O=C(Cn1ccc2ccccc2c1=O)NCCC(=O)N1CCN(c2cccc(Cl)c2)CC1 | inconclusive: 26.9 µM [inhibitor, single point]
NS(=O)(=O)c1ccc(NC(=O)CSc2ccccc2)cc1 | active: 30.1 µM
COc1cccc(C(=O)NNC(=O)Cc2ccc([N+](=O)[O-])cc2)c1 | inconclusive: 37.9 µM [inhibitor, single point]
Cc1cc(NC(=O)COC(=O)CSCc2ccc(Cl)c(Cl)c2)no1 | inconclusive: 21.3 µM [inhibitor, partial curve]
CCOC(=O)Cc1csc(-n2sc3ccccc3c2=O)n1 | inconclusive: 37.9 µM [inhibitor, single point]
COc1ccc(OC)c(/C=N/NC(=O)CCc2ccc(O)c(O)c2)c1 | inactive
O=C(CCS(=O)(=O)c1ccc(Br)cc1)Nc1ccc(Br)cc1F | inconclusive: 30.1 µM [inhibitor, single point]
CC(C)n1ncc2c(C(=O)Nc3ccc(S(N)(=O)=O)cc3)cc(C3CC3)nc21 | inconclusive: 10.7 µM [activator, partial curve]
O=C(COc1ccc(Cl)cc1Cl)Nc1cccnc1 | inconclusive: 37.9 µM [inhibitor, single point]
COc1ccc(OC)c(S(=O)(=O)N(C(C)=O)c2ccc3oc(=O)sc3c2)c1 | inconclusive: 12 µM [activator, partial curve]
Cc1cc[n+](-c2[nH]c(=O)sc2/C=N/N=C(\[O-])c2ccncc2)cc1 | inactive
Cc1[nH]c2ccccc2c1C(=O)CN1C(=O)C(=O)N(Cc2ccco2)C1=O | inconclusive: 23.9 µM [activator, partial curve]
